# According to the supplement of paper PMC4604168 (melanoma cell lines):
# The other results are listed elsewhere or left out. Many values rest on one well or one pass, so single values are uncertain.
# Tested on: LOXIMVI
# Assay: cell count relative to DMSO control; melanoma cells; higher = more viable cells
# Details: library dose: low library concentration; 72 h
# 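Note: cell number obtained by counting DAPI-stained nuclei in high-throughput microscope images with image analysis software, screen run in 1,536-well plates.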
row,SMILES,cell count
1,"COc1cc(Nc2ncc(F)c(Nc3ccc4c(n3)NC(=O)C(C)(C)O4)n2)cc(OC)c1OC [Tamatinib] + COC(=O)c1sccc1S(=O)(=O)Nc1ccc(Nc2ccccc2)cc1OC [GSK0660] (first compound 0.4 µM, partner dose 1 µM)",92.6%
2,"O=C(O)c1ccc(-c2c[nH]c3ncc(-c4ccccc4)cc23)cc1C1CCCC1 + O=C(O)C(=O)Nc1sc2c(c1C(=O)O)CCNC2 [TCS401] (first compound 0.16 µM, partner dose 1.66667 µM)",79.3%
3,"C[C@@H]1CCN(C(=O)CC#N)C[C@@H]1N(C)c1ncnc2[nH]ccc12 + N#Cc1c(O)c2c(-c3ccc(-c4ccccc4O)cc3)csc2[nH]c1=O [A769662] (first compound 1 µM, partner dose 2 µM)",49.6%
4,"C[C@@H]1CCN(C(=O)CC#N)C[C@@H]1N(C)c1ncnc2[nH]ccc12 + CC(C)CCN1c2nc(Nc3cc(F)c(O)c(F)c3)ncc2N(C)C(=O)C1C [BID1870] (first compound 1 µM, partner dose 0.2 µM)",105%
5,"C[C@@H]1CCN(C(=O)CC#N)C[C@@H]1N(C)c1ncnc2[nH]ccc12 + O=c1cc(-c2cccc3c2Sc2ccccc2S3)oc(N2CCOCC2)c1 [KU55933] (first compound 1 µM, partner dose 1 µM)",80.4%
6,"O=C(O)c1ccc(-c2c[nH]c3ncc(-c4ccccc4)cc23)cc1C1CCCC1 + O=C1NC(=O)/C(=C/c2ccc(-c3ccc(F)cc3O)o2)S1 [AS252424] (first compound 0.16 µM, partner dose 1 µM)",96.5%
7,"O=C(O)c1ccc(-c2c[nH]c3ncc(-c4ccccc4)cc23)cc1C1CCCC1 + CCN(CC)CCCCNc1ncc2cc(-c3cc(OC)cc(OC)c3)c(NC(=O)NC(C)(C)C)nc2n1 [PD173074] (first compound 0.16 µM, partner dose 0.1 µM)",119%
8,"O=c1[nH]nc(Sc2ncc([N+](=O)[O-])s2)n1-c1ccc2c(c1)OCCO2 + CN1CCN(c2ccc3nc(-c4c(N)c5c(F)cccc5[nH]c4=O)[nH]c3c2)CC1 [Dovitinib] (first compound 0.2 µM, partner dose 0.1 µM)",83.2%
9,"COc1cc(Nc2ncc(F)c(Nc3ccc4c(n3)NC(=O)C(C)(C)O4)n2)cc(OC)c1OC [Tamatinib] + COc1ccc(-c2ccc3c(N4CCOCC4)nc(N4C[C@@H](C)O[C@@H](C)C4)nc3n2)cc1CO [KU0063794] (first compound 0.4 µM, partner dose 0.02 µM)",84.5%
10,"O=c1[nH]nc(Sc2ncc([N+](=O)[O-])s2)n1-c1ccc2c(c1)OCCO2 + CCCS(=O)(=O)Nc1ccc(F)c(C(=O)c2c[nH]c3ncc(Cl)cc23)c1F [PLX4720] (first compound 0.2 µM, partner dose 0.08 µM)",86.4%
11,"O=c1[nH]nc(Sc2ncc([N+](=O)[O-])s2)n1-c1ccc2c(c1)OCCO2 + COc1ccc(Cl)c(Nc2nc3ccccc3nc2NS(=O)(=O)c2cccc(NC(=O)C(C)(C)N)c2)c1 [XL147] (first compound 0.2 µM, partner dose 0.8 µM)",64.5%
12,"C[C@@H]1CCN(C(=O)CC#N)C[C@@H]1N(C)c1ncnc2[nH]ccc12 + COc1ccc2c(c1)CCC1C2CCC2(C)C(NCCCCCCN3C(=O)C=CC3=O)CCC12 [U73122] (first compound 1 µM, partner dose 0.4 µM)",84.6%
13,"CC1(C)NC(=O)N(c2ccc([N+](=O)[O-])c(C(F)(F)F)c2)C1=O [nilutamide] + c1cc(-c2cnn3cc(-c4ccc(OCCN5CCCCC5)cc4)cnc23)ccn1 [Dorsomorphin] (first compound 1 µM, partner dose 0.4 µM)",68.4%
14,"O=c1[nH]nc(Sc2ncc([N+](=O)[O-])s2)n1-c1ccc2c(c1)OCCO2 + C=CCNC1=C2C[C@@H](C)C[C@H](OC)[C@H](O)[C@@H](C)/C=C(\C)[C@H](OC(N)=O)[C@@H](OC)/C=C\C=C(/C)C(=O)NC(=CC1=O)C2=O [Tanespimycin] (first compound 0.2 µM, partner dose 0.002 µM)",98.6%
15,"O=C(Nc1cccc(Cl)c1)Nc1ncc(CCNc2ncnc3ccsc23)s1 + COc1cc(N2CCC(N3CCN(C)CC3)CC2)ccc1Nc1ncc(Cl)c(Nc2ccccc2S(=O)(=O)C(C)C)n1 [NVP-TAE684] (first compound 0.0008 µM, partner dose 0.08 µM)",103%
16,"O=c1[nH]nc(Sc2ncc([N+](=O)[O-])s2)n1-c1ccc2c(c1)OCCO2 + C[C@]1(c2nc3c(C(N)=O)cccc3[nH]2)CCCN1 [Veliparib] (first compound 0.2 µM, partner dose 1.4 µM)",107%

row,SMILES,cell count
1,"O=C(Nc1cccc(Cl)c1)Nc1ncc(CCNc2ncnc3ccsc23)s1 + CCCCCCCCCCCC1=C(O)C(=O)C=C(O)C1=O [Embelin] (first compound 0.0008 µM, partner dose 1.2 µM)",116%
2,"O=C(Nc1cccc(Cl)c1)Nc1ncc(CCNc2ncnc3ccsc23)s1 + c1cc(-c2cnn3cc(-c4ccc(OCCN5CCCCC5)cc4)cnc23)ccn1 [Dorsomorphin] (first compound 0.0008 µM, partner dose 0.4 µM)",116%
3,"C[C@@H]1CCN(C(=O)CC#N)C[C@@H]1N(C)c1ncnc2[nH]ccc12 + CCCCCCCCCCCC1=C(O)C(=O)C=C(O)C1=O [Embelin] (first compound 1 µM, partner dose 1.2 µM)",87%
4,"COc1cc(Nc2ncc(F)c(Nc3ccc4c(n3)NC(=O)C(C)(C)O4)n2)cc(OC)c1OC [Tamatinib] + Oc1nc(-c2ccc(C(F)(F)F)cc2)nc2c1CSCC2 [XAV939] (first compound 0.4 µM, partner dose 2 µM)",95.4%
5,"O=C(O)c1ccc(-c2c[nH]c3ncc(-c4ccccc4)cc23)cc1C1CCCC1 + COc1ccc2c(c1)CCC1C2CCC2(C)C(NCCCCCCN3C(=O)C=CC3=O)CCC12 [U73122] (first compound 0.16 µM, partner dose 0.4 µM)",76.7%
6,"O=c1[nH]nc(Sc2ncc([N+](=O)[O-])s2)n1-c1ccc2c(c1)OCCO2 + Nc1ccn([C@@H]2O[C@H](CO)[C@@H](O)C2(F)F)c(=O)n1 [gemcitabine] (first compound 0.2 µM, partner dose 0.0004 µM)",116%
7,"CC1(C)NC(=O)N(c2ccc([N+](=O)[O-])c(C(F)(F)F)c2)C1=O [nilutamide] + CCCCCCCCCCCC1=C(O)C(=O)C=C(O)C1=O [Embelin] (first compound 1 µM, partner dose 1.2 µM)",84.9%
8,"O=c1[nH]nc(Sc2ncc([N+](=O)[O-])s2)n1-c1ccc2c(c1)OCCO2 + CNC(=O)c1cc(Oc2ccc(NC(=O)Nc3ccc(Cl)c(C(F)(F)F)c3)cc2)ccn1 [sorafenib] (first compound 0.2 µM, partner dose 0.4 µM)",123%
9,"Cn1cncc1[C@@](N)(c1ccc(Cl)cc1)c1ccc2c(c1)c(-c1cccc(Cl)c1)cc(=O)n2C [tipifarnib] + COC(=O)c1sccc1S(=O)(=O)Nc1ccc(Nc2ccccc2)cc1OC [GSK0660] (first compound 0.01 µM, partner dose 1 µM)",142%
10,"O=c1[nH]nc(Sc2ncc([N+](=O)[O-])s2)n1-c1ccc2c(c1)OCCO2 + Cc1cn(-c2cc(NC(=O)c3ccc(C)c(Nc4nccc(-c5cccnc5)n4)c3)cc(C(F)(F)F)c2)cn1 [nilotinib] (first compound 0.2 µM, partner dose 0.2 µM)",70.1%
11,"O=c1[nH]nc(Sc2ncc([N+](=O)[O-])s2)n1-c1ccc2c(c1)OCCO2 + CC(C)C[C@H](NC(=O)[C@H](Cc1ccccc1)NC(=O)c1cnccn1)B(O)O [Bortezomib] (first compound 0.2 µM, partner dose 0.001 µM)",88.5%
12,"O=c1[nH]nc(Sc2ncc([N+](=O)[O-])s2)n1-c1ccc2c(c1)OCCO2 + Cc1nc(Nc2ncc(C(=O)Nc3c(C)cccc3Cl)s2)cc(N2CCN(CCO)CC2)n1 [dasatanib] (first compound 0.2 µM, partner dose 0.004 µM)",94.1%
13,"O=C(O)c1ccc(-c2c[nH]c3ncc(-c4ccccc4)cc23)cc1C1CCCC1 + Oc1nc(-c2ccc(C(F)(F)F)cc2)nc2c1CSCC2 [XAV939] (first compound 0.16 µM, partner dose 2 µM)",97.3%
14,"CC1(C)NC(=O)N(c2ccc([N+](=O)[O-])c(C(F)(F)F)c2)C1=O [nilutamide] + CCN(CC)CCCCNc1ncc2cc(-c3cc(OC)cc(OC)c3)c(NC(=O)NC(C)(C)C)nc2n1 [PD173074] (first compound 1 µM, partner dose 0.1 µM)",96.8%
15,"Cn1cncc1[C@@](N)(c1ccc(Cl)cc1)c1ccc2c(c1)c(-c1cccc(Cl)c1)cc(=O)n2C [tipifarnib] + c1cc(-c2cnn3cc(-c4ccc(OCCN5CCCCC5)cc4)cnc23)ccn1 [Dorsomorphin] (first compound 0.01 µM, partner dose 0.4 µM)",136%
16,"C[C@@H]1CCN(C(=O)CC#N)C[C@@H]1N(C)c1ncnc2[nH]ccc12 + COc1cc(N2CCC(N3CCN(C)CC3)CC2)ccc1Nc1ncc(Cl)c(Nc2ccccc2S(=O)(=O)C(C)C)n1 [NVP-TAE684] (first compound 1 µM, partner dose 0.08 µM)",82.9%
